For 167 variants, self-cleavage results are on record in the RNAGym collection of RNA variant scans (doi:10.1093/nar/gkz1192).

B1: CPEB3 Ribozyme (parent)
chain: UAACAGGGGGCCACAGCAGAAGCGUUCACGUCGCAGCCCCUGUCAGAUUCUGGUGAAUCUGCGAAUUCUGCUGUAUAUCUC

The source gives no read counts; variants with many changes may rest on few reads.

The variants in this series derive from B1. In words: self-cleavage, relative activity (ratio to wild type); higher = more cleavage; in vitro, sequencing. Put shortly: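 For each CPEB3 ribozyme variant, relative activity is its cleaved/total read fraction divided by the unmutated ribozyme's. Barcoded error-prone PCR libraries were transcribed by T7 RNA polymerase (5 hours, 37°C) and held in DNase I for 15 min before an EDTA stop, with cleavage occurring throughout. Template-switching reverse transcription and Illumina sequencing were used to read the RNAs. A 5-read minimum applied, and results are the mean of three batches.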
C23A U67C U80C: the self-cleavage is 0.18.
With C23A U67A A77U the figure was 0.09; with G22A U43C U48C U58C A64U, 0.32; with G22A G24A U74C, 0.12.
To C23U C50A U51A belongs 0.21; to A21U G42C U72C U78C, 0.12; to A21U U58G U67C U74A U78C, 0.05.
To G22A U54A A65G belongs 0.16; to A21U U43C U78A U80C, 0.19.
As to G24A A28C A45U C59U, the self-cleavage worked out at 0.07.
With G22U C32A U41C the figure was 0.13.
To A21U U25C A45U U78A belongs 0.05; to C23U U26A U41A U67A, 0.1; to G22A U41A A45G, 0.12.
With C23U U43C U69C U72C U74C the figure was 0.08; with C23A U26C C39A, 0.32.
Turning to C23U U31A U69A, the self-cleavage was 0.37.
Consider C23U G30A U49C, for which the self-cleavage came out at 0.14.
Regarding G22A U26C A35G U43C A45G, the self-cleavage amounted to 0.14.
To A21U U41C U48C A77G belongs 0.09; to C23U A35G U67C U76C, 0.11.
Consider C23U U26C A35G, for which the self-cleavage came out at 0.27.
To A21U U26A C32G C39U U43A U67C belongs 0.01; to G24A A28G A45G U60C, 0.09; to G24A A28G G36U U60A, 0.08.
To C23G C37U A56G U60G G63A A65U U74C belongs 0.05.
To A21U U26C U43C U51C U67C U72C U80C belongs 0.06; to C23U U26C G36C A47G U48C U72C, 0.06; to A21U U72C C81A, 0.76.
As for C23A U51A A56G A57U, the self-cleavage was 0.16.
Take C23G U26A A35G U51A U72G: the self-cleavage was 0.09.
To A21U G30U G63C belongs 0.16.
To G22A U26C U41C A45G A57G A75U belongs 0.16; to C23U U25C U31C C37U U43C, 0.09; to A21U G22C U51G A64G U69A, 0.11.
With C23G U26A U31C G46A U69C the figure was 0.05.
In the case of C23A C38A A56G U80C, the self-cleavage amounted to 0.22.
To A21U U31A C62U belongs 0.15; to G22A C32U C44G U54A A57U, 0.04; to C23A C34G A75G, 0.15.
To C23G A45G G63A U72C belongs 0.54; to A21U U41C U43G A57G U80A, 0.05; to C23U G52U A64G, 0.35.
With C23U U43A A77U the figure was 0.47; with C23G C29U U74C, 0.1.
For the variant G22C U25A U41C A56U A65U, the self-cleavage is 0.1.
As for C23U A35C U58C, the self-cleavage was determined as 0.09.
To A21U U26A U49A U72C belongs 0.08; to A21U G24A U54A, 0.11.
To C23A U41A G52A A64G U66A C68U U69A belongs 0.07; to C23U A65G U72A, 0.14.
With G22A A47G A64G U72C the figure was 0.05.
As for A21U C39A U43C, the self-cleavage was found to be 0.36.
Take C23U U49A U58C A64G A75G: the self-cleavage was determined as 0.04.
To G22A U26C A28U U43C A45G belongs 0.19; to C23G U26C U43C U72G, 0.19; to A21U U41C A47G U49C U54A A56G U74C, 0.36.
With C23G U25C A35G U69A U72A the figure was 0.05.
To A21U U43C A77U U80A belongs 0.14; to C23A U31C A35G U67C, 0.06; to G22C C39U A57G, 0.12.
On to A21U C39A C81G, for which the self-cleavage was determined as 0.34.
For the variant C23G C62A U80C, the self-cleavage was found to be 0.17.
Take C23A U67C U74C: the self-cleavage is 0.1.
With A21U C40A U41G U49C U51A U76G A77G the figure was 0.05; with G22U A28G U67A, 0.06; with C23U U49C A57G U67C, 0.2.
With A21U U31C G46A U54A U66C the figure was 0.06.
Turning to G22A C29U U31C A35G, the self-cleavage amounted to 0.04.
With G22A U26C A28G U43C A45G A56G the figure was 0.04; with G22C A28G U51A, 0.18; with C23U U43A U76C, 0.49.
As for A21U U54C U80C, the self-cleavage was 0.44.
To C23U U41A U74C A75U A77G belongs 0.29.
For the variant C23G U43A A64G U67C, the self-cleavage is 0.11.
Consider C23U U25C C37U U60C, for which the self-cleavage worked out at 0.32.
To C23U C34U A64G G70A belongs 0.05; to C23U A45G A56G A64G, 0.17; to A21U U25C C39A G61A C62U U80A, 0.09.
To A21U C38A U66C belongs 0.13; to A21U U69A U74A, 0.12.
For G22U A35U U60A, the self-cleavage is 0.13.
With C23G U25C U78G, the self-cleavage was 0.31.
To G22U G42U U69A belongs 0.12; to G24A A28G U41A U49C G73C, 0.06.
Turning to C23U C37A A65G U80C, the self-cleavage was 0.14.
To C23G U25C C29G C40A belongs 0.07; to C23G U26C A57G, 0.23; to C23U U54C A75G, 0.19.
To A21U U31C A45G A64U G70U belongs 0.13; to C23G U26A A35G U43A G52A U54A, 0.07; to A21U G33A U78C, 0.07.
With A21U U26A U58A the figure was 0.42.
A21U U26C A56G C68A A75G: the self-cleavage came to 0.05.
To A21U U49C U67A U69A belongs 0.05.
To A21U C59G U60C A64G belongs 0.09.
With A21U U26C A56G U67C the figure was 0.13; with C23U C38U U54A A56G, 0.11.
On to C23U U48A U49A U54C U67A, for which the self-cleavage is 0.08.
With C23U U26C A45C U69A the figure was 0.09; with C23U C34G U48C G55A, 0.09.
With C23U C32U A35G U41C the figure was 0.05; with A21U U41A A65G U69C U80C, 0.17.
With C23A U25C U26C, the self-cleavage was found to be 0.2.
With C23G A56G U78C, the self-cleavage came out at 0.09.
For the variant C23A U41C C62A A77G, the self-cleavage was 0.09.
To A21U G42A A57G belongs 0.49; to C23U U69C A75G, 0.08; to G22C U26C U41G A45G A57G, 0.05.
To C23U U49C U54A belongs 0.16; to A21U G24A C40U A56G A65G, 0.07; to C23U C29U U51C, 0.33.
With A21U U26C U51C U69C the figure was 0.06; with C23U U60C U66A, 0.1.
With A21U G36C C37G A57U, the self-cleavage was found to be 0.16.
With G22U A57G U72C the figure was 0.25.
To A21U G52A U60C belongs 0.17.
With C23U U31C C40A A56U U66C U72A the figure was 0.08.
C23A A28G U72G: the self-cleavage turned out to be 0.14.
Turning to A21U U31A G42A G70C, the self-cleavage worked out at 0.03.
With G24A A28C U43C the figure was 0.18.
In the case of C23A U25G U51A, the self-cleavage was found to be 0.04.
For G22A U26G U49C, the self-cleavage was found to be 0.18.
With A21U U25C A35U A65G A77G the figure was 0.24; with G22U G33A U74G A75U, 0.17; with A21U G30A U58G U80A, 0.08.
To C23G U43A A45U G46U A75G belongs 0.29.
As to A21U U31C U60A, the self-cleavage stood at 0.11.
To C23G U26C C27G U60C C79G belongs 0.07; to C23A U43A G61C U67C U80C, 0.14.
With G22A G53A U60A G73A the figure was 0.14.
Consider G22C A47U U74A, for which the self-cleavage was 0.16.
With A21U U41A U58A U60C U74A the figure was 0.08; with G22U U51G U72A U78C, 0.08; with C23U A28G U69A, 0.26.
A21U U25C U43A U60G U72A: the self-cleavage turned out to be 0.11.
Consider G22U A47G U49G A56G U60G U67C U72C, for which the self-cleavage is 0.06.
With G22A U60A G63A U67C U69C the figure was 0.08; with C23U G33U U60C A64G, 0.05; with C23U U26A C32U U51A, 0.09.
C23A A45U U51C A64U U69C: the self-cleavage was 0.07.
To C23G U31C A56G U72C U76A U78C belongs 0.04; to C23A G55C U69C, 0.18.
To A21U U49C U66A belongs 0.34.
With C23U U43C U58C the figure was 0.09.
Consider C23G A35G A64U, for which the self-cleavage amounted to 0.2.
With C23A U31C U69C A75G the figure was 0.09.
Consider C23U U58C A75G, for which the self-cleavage came to 0.08.
With C23G U26A A56U U80C the figure was 0.26.
With C23U U58C U60A C62A U76A the figure was 0.15; with C23A U25G A28U U41A A65G, 0.05.
With G22U G30A U72A the figure was 0.23; with C23A C32A A45G U48C, 0.13.
As to C23G A35G A65G, the self-cleavage was 0.23.
To G22A A28U C32U G70U C79A belongs 0.07.
With C23U A35G U58C U66C U78C the figure was 0.13; with G22A G30C U60A A64G C68U, 0.07; with A21U U41C G52A U69C, 0.19.
To A21U G24U U41C U58A belongs 0.11; to C23A U41A A56G, 0.11.
Turning to G22A A28U G36A U66C, the self-cleavage was determined as 0.07.
To C23G A35U U51A G52A belongs 0.07.
With G22A A35G U72C the figure was 0.54.
With C23U U26C U72G the figure was 0.07; with A21U U41C A57G C62A U67C C79U, 0.06; with C23U A28G A47G A57G C68A, 0.12.
Consider G22A A35G A64G, for which the self-cleavage was 0.35.
